Assay results as given in PubChem BioAssay AID1159614 (National Center for Advancing Translational Sciences (NCATS), 2016).
Screen size: about 45,000 compounds; about 65 (0.1%) were called active. Calls come from the whole dose curve; as a rule, active = well fitted activation curve with a large enough effect; inconclusive = small, poorly fitted or top-dose-only effect; inactive = no such curve, though single readings can be large or run the other way. This is one part of the list.

biological target: Galactocerebrosidase (Homo sapiens) (UniProt P54803); experiment: A Novel Cell-Based Assay to Identify Small Molecules for B -Galactocerebrosidase; conditions: 145M-Twi-hGALC-G270D cells (Twitcher mouse brain line with human GALC G270D), HMU-beta-Gal fluorescence, 48 h; series mostly up to 57.5 µM; activation: at the top concentration; note: 0% is about no effect; nearly all actives have a fitted effect of over 65% in size
Sequence of UniProt P54803 (P54803 whole entry, looked up): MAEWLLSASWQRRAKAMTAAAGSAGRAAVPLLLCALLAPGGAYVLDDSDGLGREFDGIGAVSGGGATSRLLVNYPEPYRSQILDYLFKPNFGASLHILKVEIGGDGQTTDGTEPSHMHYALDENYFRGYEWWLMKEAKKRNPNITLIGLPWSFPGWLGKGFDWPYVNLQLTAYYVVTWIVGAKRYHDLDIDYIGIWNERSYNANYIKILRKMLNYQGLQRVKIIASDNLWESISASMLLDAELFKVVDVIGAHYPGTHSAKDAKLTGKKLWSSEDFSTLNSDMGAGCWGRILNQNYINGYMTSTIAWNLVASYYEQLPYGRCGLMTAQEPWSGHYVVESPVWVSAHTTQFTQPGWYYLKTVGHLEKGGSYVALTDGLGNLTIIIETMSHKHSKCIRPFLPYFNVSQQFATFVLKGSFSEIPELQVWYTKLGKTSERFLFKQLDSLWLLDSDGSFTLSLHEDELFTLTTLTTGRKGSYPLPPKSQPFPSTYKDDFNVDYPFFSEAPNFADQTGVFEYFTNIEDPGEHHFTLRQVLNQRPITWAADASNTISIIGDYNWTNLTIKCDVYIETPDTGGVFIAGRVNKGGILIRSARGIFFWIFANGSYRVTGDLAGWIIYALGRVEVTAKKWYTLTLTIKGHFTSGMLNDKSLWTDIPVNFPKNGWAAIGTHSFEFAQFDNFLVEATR
Method in brief: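 Mutant human GALC (G270D), stably expressed in a Twitcher mouse brain cell line lacking endogenous GALC, is measured in live-treated cells via 6-hexadecanoylamino-4-methylumbelliferyl-β-galactoside hydrolysis (0.1 mM final, pH 5.2) with fluorescent detection.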

activation, inactive:
Cc1ccc(NS(=O)(=O)c2ccc3[nH]c4c(c3c2)CCCC4)cc1N(C)C -1.85%
Cc1cccc(NC(=O)Cn2c(=O)nc(-c3ccccc3)c3ccccc32)c1C -4.77%
CCOc1ccc(N(CC(=O)NCc2ccc(C)cc2)S(=O)(=O)c2c(C)noc2C)cc1 -0.415%
O=C(c1ccc(CSc2nc3ccncc3n2Cc2cccc(F)c2)cc1)N1CCCCC1 -13.6%
CCOC(=O)c1c(C)oc2ccc(N(C(=O)c3ccncc3)S(=O)(=O)c3ccc(Br)cc3)cc12 -38%
CC1=C(c2ccc(C(C)C)cc2)S(=O)(=O)NC1=NCc1ccccc1Br -6.45%
COc1cc(NC(=O)CN2C(=O)CN(C)C(=O)c3ccccc32)cc(OC)c1OC -14.1%
COc1ccc(C)cc1NC(=O)C1CCCN(S(=O)(=O)c2ccc3[nH]c(=O)ccc3c2)C1 (stereo unspecified) -3.69%
CCOc1cc2[nH]c(=O)n(CCCC(=O)N3CCN(c4ccc(OC)cc4)CC3)c(=O)c2cc1OCC -11.4%
CCn1c2ccccc2c2cc(NC(=O)COc3cccc(C)c3)ccc21 -9.3%
CCOC(=O)c1c(C)[nH]c(C)c1S(=O)(=O)N1CCC(C(=O)Nc2ccc(C)cn2)CC1 -7.8%
CCOc1ccc(CCNC(=O)Cn2ncc3c(=O)oc4ccc(C)cc4c32)cc1 -7.96%
CNC(=O)C1CCC(Cn2c(=O)c3sccc3n(CC(=O)Nc3ccc(C)c(F)c3)c2=O)CC1 (stereo unspecified) -13.4%
Cc1ccc(F)c(NC(=O)Nc2ccc3snnc3c2)c1 -12.8%
COc1ccc(OC)c(NS(=O)(=O)c2ccc3[nH]c4c(c3c2)CCCCC4)c1 -36.3%
CCCCN1CC(c2nc3ccccc3n2CCCCOc2ccc(C)c(C)c2)CC1=O (stereo unspecified) -22.1%
O=C(NCCN1CCN(c2cccc(Cl)c2)CC1)C1COc2ccccc2C1 (stereo unspecified) -16.4%
Cc1cccc(CNC(=O)Cn2ccc3cc(S(=O)(=O)N4CCCC4)ccc32)c1 -6.61%
CC(=O)N1CCCc2cc(S(=O)(=O)N(C)CC(=O)Nc3cccc(C)c3C)ccc21 -18.7%
CCOc1ccc(CCNC(=O)c2cn(CC)c3ccc(S(=O)(=O)N4CCCCCC4)cc3c2=O)cc1OCC -8.76%
O=C1c2[nH]nc(-c3ccccc3O)c2C(c2cccc(Cl)c2)N1Cc1cccnc1 (stereo unspecified) -9.79%
COc1cc(C2C(C(=O)Nc3ccc(C)cc3C)=C(C)Nc3nc4ccccc4n32)cc(OC)c1OC (stereo unspecified) -6.98%
Cc1cccc(NC(=O)CS(=O)(=O)c2nc(-c3ccccc3)cn2-c2cccc(Cl)c2)c1C -12.8%
Cc1ccc(S(=O)(=O)N(CCc2ccccc2)CC(=O)Nc2cc(C)ccc2C)cc1 -15.9%
CCOC(=O)c1cc(-c2ccc(C)cc2)n(CCC(=O)Nc2ccc(C(C)C)cc2)c1C -6.43%
CN(C)S(=O)(=O)c1ccc(C(=O)NC2CC(=O)N(c3ccc4c(c3)OCCO4)C2)cc1 (stereo unspecified) -14.3%
COc1cccc(N2CCN(C(=O)C3CCN(S(=O)(=O)c4c(C)noc4C)CC3)CC2)c1 -14.7%
COc1cccc(-c2nc(CS(=O)(=O)CC(=O)Nc3c(C)cc(C)cc3C)c(C)o2)c1 -22.4%
O=C(NC1CC(=O)N(c2ccc(Cl)cc2)C1)c1ccc2c(c1)OCO2 (stereo unspecified) 0.469%
CCOc1ccccc1NC(=O)c1nc2nc(C)cc(C(F)F)n2n1 -12.4%
Cc1cccc(NC(=O)Cn2nnc(C(=O)Nc3ccccc3Br)c2N)c1C -4.89%
Cn1cc(C(=O)NCc2ccccc2)c(=O)c2cc(S(=O)(=O)N3CCOCC3)ccc21 -6.62%
Cc1cc(NC(=O)N(C)CCc2c(C)nn(C)c2C)ccc1Br -2.83%
Cc1ccc2c(=O)cc(C(=O)N(Cc3ccc(N(C)C)cc3)C3CCS(=O)(=O)C3)oc2c1 (stereo unspecified) -2.94%
CCCN1CCN(CCCNC(=O)Cn2nc(CC)n3c(cc4occc43)c2=O)CC1 12.7%
N=c1n(CCN2CCCCC2)c2ccccc2n1CC(O)COc1ccc(Cl)cc1Cl (stereo unspecified) -18.2%
CSc1ccc(CCNC(=O)CN2C(=O)c3cccnc3Oc3ccc(C)cc32)cc1 -9.33%
Cc1cc(F)ccc1NS(=O)(=O)c1c(C)nc2scc(C)n2c1=O -8.49%
CCc1cccc(C)c1NC(=O)CSc1nc2ccccc2nc1N1CCOCC1 -7.46%
COc1ccc(Cn2c(SCc3ccc(C(=O)NCc4cccs4)cc3)nc3cccnc32)cc1 -11.2%
CC1(C)O[C@H]2[C@@H](O1)[C@@H](C(=O)Nc1ccc(F)c(F)c1)O[C@@H]1OC(C)(C)O[C@@H]12 -19.5%
COc1ccc(CCNC(=O)c2ccc3c(c2)N(Cc2cccc(Cl)c2)C(=O)CS3)cc1OC -0.288%
CCOc1ccc(C(c2c(O)cc(C)n(CCOC)c2=O)N2CCC(C)CC2)cc1 (stereo unspecified) 8.85%
O=C(NCc1ccc(Cl)cc1)c1cnc2sc(N3CCCC3)nn2c1=O -6.44%
O=C(CC1N=C2c3ccccc3N=C(SCc3ccccc3F)N2C1=O)NCc1ccc2c(c1)OCO2 (stereo unspecified) -8.77%
COc1ccc(Cl)cc1NC(=O)CN(c1cccc(C)c1C)S(=O)(=O)c1ccccc1 2.44%
COc1ccc(C2c3c(n(C)c4ccccc34)C(=O)N2CC(=O)Nc2ccccc2F)cc1 (stereo unspecified) -8.89%
COc1cc(C)ccc1OCCn1c(-c2ccc(Cl)cc2)nc2ccccc2c1=O -27.3%
COc1ccc2c(c1)sc1ncc(C(=O)NCc3cccc(Cl)c3)c(=O)n12 -21.2%
COc1ccc(-n2c3c(cc(-c4nc(-c5ccc(Cl)cc5)cs4)c2=O)C(=O)CC(C)(C)C3)cc1 -10.2%
O=C1c2[nH]nc(-c3ccc(Br)cc3)c2C(c2cccc(O)c2)N1c1ccc(Cl)cc1 (stereo unspecified) -7.45%
COc1ccc(NC(=O)c2sc3nc4n(c(=O)c3c2C)CCC4)cc1Cl -19.4%
Cc1ccc2scc(N3CCN(c4ccc(F)cc4)CC3)c(=O)c2c1 -5.99%
CCOc1ccc(NC(=O)Cn2c(=O)oc3cc(S(=O)(=O)N4CCCCCC4)ccc32)cc1 -3.64%
Cc1ccc(CCNC(=O)c2ccc(CSCc3ccccc3Cl)o2)cc1 -14.3%
Cc1ccc(N(C)S(=O)(=O)c2nnc(NC(=O)C3CCCCC3)s2)cc1 -20.1%
CCc1ccc(CNC(=O)c2cc(-c3ccc(Cl)s3)nc3ccccc23)cc1 -4.98%
O=C(Cc1ccc(NC(=O)N2CCSc3ncccc32)cc1)NCCc1ccccc1 -9.03%
CCNc1ccc(-c2nc(-c3ccco3)no2)cc1[N+](=O)[O-] -2.75%
CN(C)S(=O)(=O)n1cc(/C=C(\NC(=O)c2ccccc2)C(=O)NCCCn2ccnc2)c2ccccc21 9.44%
CCOc1ccc(CNC(=O)c2ccc3c(c2)c(C)c(C)n3Cc2ccc(Cl)cc2)cc1 -8.33%
O=C(NCCOCCn1c(=O)oc2ccccc21)Nc1ccc(Cl)cc1 -4.83%
Cc1ccccc1NC(=O)c1c(NC(=O)Cc2ccccc2)sc2c1CCC2 -7.82%
CCOC(=O)N1CCc2c(sc3c2c(=O)n(-c2ccc(CC)cc2)c(=O)n3CC(=O)Nc2ccc(C)cc2)C1 -9.85%
Cc1ccc2oc(=O)n(CCCOc3ccc(Cl)cc3)c2c1 -8.55%
Cc1cc(C)c(NC(=O)c2cc(S(=O)(=O)N3CCN(c4ccccc4F)CC3)ccc2F)c(C)c1 -28%
COc1ccc(N2CC(NC(=O)CCc3ccccc3)CC2=O)cc1OC (stereo unspecified) -12%
COc1cc(OC)c(Nc2nc3ccccc3nc2-n2nc(C)cc2C)cc1Cl -1.54%
O=C(Cn1c(=O)n(CC2CCCO2)c(=O)c2ccccc21)Nc1cccc(Cl)c1 (stereo unspecified) -2.3%
COC(=O)c1scc(-c2ccc(C)cc2)c1S(=O)(=O)N1CCN(c2ccc(OC)cc2)CC1 -16.1%
CCOC(=O)c1ccccc1NC(=O)N1CCC(N2CCN(Cc3ccccc3)C(=O)C2=O)CC1 -14.1%
Cc1ccc(CCn2c3c(c4cc(Cl)ccc42)CN(C)CC3)cn1 -7.21%
Cc1ccc(N)cc1O -17.9% [at 114 µM]
CCS(=O)(=O)N1CCc2cc(C(=O)NCc3ccccc3)ccc21 -6.35%
Cc1ccc(-c2nc3nc(C)cc(Nc4ccccc4O)n3n2)cc1 -13.1%
CCOc1ccc(OCC)c(NC(=O)CCC(=O)N2CCOc3ccccc32)c1 -15.7%
COCCCNc1nc2c(S(=O)(=O)c3ccc(C)c(C)c3)nnn2c2ccc(Cl)cc12 2.19%
Cc1ccc(NC(=O)CN2C(=O)CCn3nc(-c4cccn4C)cc32)cc1 -12.2%
Cc1ccc2oc(-c3cc(NC(=O)c4ccco4)ccc3Cl)nc2c1 9.89%
CSc1ncc(C(=O)Nc2ccc(F)cc2F)c(-c2ccccc2)n1 2.18%
COc1cc(OC)c(NS(=O)(=O)c2cc(-c3cnc(C)o3)ccc2OC)cc1Cl -7.22%
COc1ccc(-n2nc(C(=O)N3CCN(c4cccc(C)c4C)CC3)c3c4ccccc4n(C)c3c2=O)cc1 -19.1%
O=C(CSCc1nc2cccnc2n1C1CCCCC1)NCc1cccc(Cl)c1 -2.65%
CNC(=O)COc1ccc(NC(=O)CCn2nc(-c3ccc(C)cc3)c3ccccc3c2=O)cc1 -3.39%
CCC(C)OC(=O)/C(C#N)=C\c1ccc(-c2ccccc2Cl)o1 (stereo unspecified) -23.1%
O=C(Nc1nc2nc(-c3ccccc3)cc(=O)n2[nH]1)c1ccc(Cl)cc1 -30.1%
Cc1ccc(CNC(=O)c2nn(C)c3c2CS(=O)(=O)c2ccccc2-3)cc1 -14.8%
CCC(=O)N1c2ccccc2CC1C(=O)NCCc1ccc(C)cc1 (stereo unspecified) -9.27%
CCN(CC)CCNC(=O)c1nn(C)c2c1CS(=O)(=O)c1ccccc1-2 -9.84%
CCOC(=O)c1ccc(N2C(=O)c3n[nH]c(-c4ccco4)c3C2c2ccc(O)c(OC)c2)cc1 (stereo unspecified) -20.5%
Cc1cn(C)c(CC(=O)NCc2ccccc2Cl)c1C(=O)O -3.42%
CSc1ccc(CNC(=O)CCn2c(=O)c3cccn3c3ccc(F)cc32)cc1 -0.487%
Cc1ccccc1C(=O)Nc1ccc2c(c1)CCCN2C(=O)c1cccs1 -5.45%
Cc1ccc(C(=O)Nc2onc3c2CCCC3)cc1 -14%
O=c1c2ccccc2n(Cc2ccccc2F)c(=O)n1-c1cccc(F)c1 -13%
COc1ccccc1CNC(=O)c1cnc2sc(N3CCCCCC3)nn2c1=O -6.22%
